Laboratory results published in PubChem BioAssay AID1569 (National Center for Advancing Translational Sciences (NCATS), 2009).
The inconclusive results got no clear call from the source; some entries with a clear call stand among them for comparison. Potencies beside an inconclusive call are fits to weak or partial responses and may not hold up. Calls of active or inactive are those of the source. Calls follow the shape of the dose curve; as a rule, active = well fitted inhibition curve with a large enough effect; inconclusive = small, poorly fitted or top-dose-only effect, or effect the other way, or another doubt; inactive = no such curve, though single readings can be large or run the other way.

Assay: Confirmation Concentration-Response Assay for lipid storage modulators; also: nearly all actives have a fitted effect of over 80% in size;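 as to activity change, negative = inhibition: -100% = full block of lipid deposition by 20 µM Triacsin C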
Details: Drosophila S3 cells, lipid droplet BODIPY/CellTracker ratio, 18-24 h; activity change, negative = inhibition: at 46.1 µM (top of the series)
Method in brief: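 Cells at 5,000/well received compound as a titration plus oleic acid (added as 400 uM solution) and were incubated 18–24 h at 24 °C. BODIPY 493/503 lipid signal and CellTracker Red cell count were read by 488-nm laser-scanning cytometry. Activity was normalised to 20 uM Triacsin C.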
Potency is read from the fitted curve at half-maximal effect; tags tell the direction and shape of the fitted curve.

Compound | activity change, negative = inhibition | Potency
O=C(NC1CCCc2c1cnn2-c1cc(F)cc(F)c1)c1cc[n+]([O-])cc1 (centres undefined) | inactive: 22.7% | –
Cc1oc(-c2ccccc2F)nc1CS(=O)(=O)CC(=O)N1CCc2ccccc21 | – | inconclusive: 3.97 µM [activator, full curve]
Cc1ccc(NC(=S)N2CCN(S(=O)(=O)c3ccc(C)cc3)CC2)cc1 | – | inconclusive: 15.8 µM [activator, partial curve]
CCOc1ccc(CCNC(=O)CN2CCN(Cc3ccc(F)cc3)C2=O)cc1OCC | – | inconclusive: 14.1 µM [falling, partial curve]
O=C(NCC1CCCCC1)c1cccc(-c2ccc(O)cc2)c1 | – | inconclusive: 11.2 µM [activator, partial curve]
CCCCn1c(SCC(=O)NCc2ccco2)nc2c(sc3ccccc32)c1=O | – | inconclusive: 1.25 µM [activator, full curve]
Cc1ccc2nc3c(nc2c1)-c1ccccc1C3=O | – | inconclusive: 0.996 µM [activator, full curve]
COc1cccc(C(=O)O[C@H]2[C@H](C)NS(=O)(=O)[C@H]3C[C@@H]4C=C[C@]23O4)c1 | inactive: 8.12% | –
Cc1ccc(C)c(OCc2cc(C(=O)N3CC[C@@H]4CCCC[C@H]4C3)no2)c1 | – | active: 14.1 µM
c1ccc(OCc2nnc3sc(-c4cccs4)nn23)cc1 | – | inconclusive: 4.45 µM [activator, full curve]
CCCOc1ccc(Cc2c(Cl)nc(SC)nc2NC)cc1 | – | active: 14.1 µM
Cc1cc(NC(=O)CSc2nc3c(sc4ccccc43)c(=O)n2CCc2ccccc2)n[nH]1 | – | inconclusive: 5.6 µM [activator, partial curve]
COc1ccc(NC(=O)NC2(C(=O)N3CCN(C)CC3)CCCCC2)cc1 | inactive: 22.7% | –
CCCOc1ccc(N2CC(C(=O)NCCc3ccc(OC)c(OC)c3)CC2=O)cc1 (centres undefined) | – | inconclusive: 6.28 µM [activator, full curve, poor fit]
COc1ccc(CCNC(=O)Cn2nnc(-c3ccc(N4CCOCC4)cc3)n2)cc1OC | – | active: 0.0445 µM
CC(=O)N1CCN(C(=O)C2(NC(=O)Nc3ccc(C)cc3)CCCCC2)CC1 | inactive: 9.61% | –
Cc1ccc(-c2nn(-c3ccccc3)cc2CN(Cc2ccccc2)C(=O)c2ccco2)o1 | – | inconclusive: 0.499 µM [activator, full curve]
CCn1cnc2sc(C(=O)Nc3ccc4c(c3)OCO4)c(C)c2c1=O | – | inconclusive: 1.99 µM [activator, full curve]
COc1ccc(CCNC(=O)c2ccc(N(C)S(=O)(=O)c3ccc(C)cc3)cc2)cc1OC | – | active: 14.1 µM
CC(C)N(Cc1nc(-c2ccccc2)no1)C(=O)c1ccc(Br)o1 | – | inconclusive: 2.81 µM [activator, full curve]

Compound | activity change, negative = inhibition | Potency
CCOc1ccc(CCNC(=O)CN2C(=O)NC3(CCCCC3C)C2=O)cc1OCC (centres undefined) | inactive: -25.3% | –
CC1CCN(C(=O)C2(NC(=O)Nc3cccc(F)c3)CCCCC2)CC1 | – | active: 7.91 µM
COc1ccc(CCNC(=O)CSc2ccc3ccccc3c2)cc1OC | – | active: 1.41 µM
CCn1c(Cc2ccc(OC)cc2)nnc1SCC(=O)Nc1cccc(C(=O)OC)c1 | inactive: -19.6% | –
CCN(CC)S(=O)(=O)c1ccc(NC(=O)c2ccccn2)cc1 | – | inconclusive: 12.5 µM [activator, partial curve]
CN1c2ccccc2-c2nc3ccccc3n2C1c1ccncc1 (centres undefined) | – | inconclusive: 0.353 µM [activator, full curve]
CC(C)(C)c1ccc(/C=C2\SC(=O)N(CCNC(=O)c3cccc(S(=O)(=O)N4CCOCC4)c3)C2=O)cc1 | – | active: 8.88 µM
Cc1cc(C)c(Cc2c(C)nc3c(C(=O)NCc4ccco4)cnn3c2C)c(C)c1 | – | active: 7.05 µM
COc1cccc(C(=O)O[C@@H]2[C@H](Cc3ccccc3)NS(=O)(=O)[C@H]3C[C@@H]4C=C[C@]23O4)c1 | – | active: 11.2 µM
O=C(NCc1ccccc1)NC1(C(=O)N2CCCC2)CCCCC1 | inactive: -14.5% | –
O=C(CCn1ccc2ccccc21)Nc1ccc(N2CCOCC2)cc1 | – | inconclusive: 14.1 µM [activator, partial curve, poor fit]
CCOc1ccc(CCNC(=O)COC(=O)COc2cc(C)cc(C)c2)cc1OCC | inactive: 12.7% | –
O=C(COC(=O)c1ccc(CO)cc1)NCc1cccs1 | inactive: 16.4% | –
Cn1nc(C(=O)OCc2ccccc2F)c2ccccc2c1=O | – | inconclusive: 1.12 µM [activator, full curve]
COc1ccc(CCNC(=O)c2ccc(CNS(=O)(=O)c3cc(C)ccc3C)cc2)cc1OC | – | inconclusive: 6.28 µM [activator, partial curve, poor fit]
CCc1ccc(NC(=O)CSc2nc3ccccc3c(=O)n2CCCC(=O)N2CCCC2)cc1 | – | inconclusive: 0.445 µM [activator, full curve]
CC12CCC(c3c(C(=O)Nc4nccs4)nn(-c4ccccc4)c31)C2(C)C (centres undefined) | – | inconclusive: 4.99 µM [activator, full curve]
Cc1ccccc1NC(=O)NC1(C(=O)N2CCC(O)CC2)CCCCC1 | inactive: 12.7% | –
CCNC(=O)NC1(C(=O)N2CCC(Cc3ccccc3)CC2)CCCCC1 | inactive: -11.1% | –
